From PubChem BioAssay AID894 (National Center for Advancing Translational Sciences (NCATS), 2007)
In all, about 150,000 compounds went through this assay and about 6,500 (4.3%) were called active. The shares of active, inactive and inconclusive entries below differ from those in the screen. The call rests on the fitted dose curve; in most records, active means well fitted inhibition curve with a large enough effect (not every such curve was filed as active); inconclusive means small, poorly fitted or top-dose-only effect, or another doubt; inactive means no such curve, though single readings can be large or run the other way. Potencies of inconclusive entries are left out as doubtful fits.

These compounds were tested against 15-hydroxyprostaglandin dehydrogenase [NAD(+)] (Homo sapiens) (UniProt P15428) (assay: qHTS Assay for Inhibitors of HPGD (15-Hydroxyprostaglandin Dehydrogenase)). Settings: purified HPGD, NADH fluorescence kinetic, PGE2 substrate; activity change, negative = inhibition: stronger effect = lower value.
In short: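 20 nM HPGD preincubated 15 min at room temperature with compound in 50 mM Tris-HCl pH 8, 0.01% Tween 20. Started with 1 mM NAD+ and 30 uM prostaglandin E2; NADH fluorescence (360/450 nm) read 5 times over 30-s intervals, last minus first.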
On the % scale 0 is the no-effect control and ±100 the full control effect; potency means the concentration at half of the fitted maximal effect; tags describe the fitted curve by direction and shape.

UniProt P15428, sequence (P15428 whole entry, looked up): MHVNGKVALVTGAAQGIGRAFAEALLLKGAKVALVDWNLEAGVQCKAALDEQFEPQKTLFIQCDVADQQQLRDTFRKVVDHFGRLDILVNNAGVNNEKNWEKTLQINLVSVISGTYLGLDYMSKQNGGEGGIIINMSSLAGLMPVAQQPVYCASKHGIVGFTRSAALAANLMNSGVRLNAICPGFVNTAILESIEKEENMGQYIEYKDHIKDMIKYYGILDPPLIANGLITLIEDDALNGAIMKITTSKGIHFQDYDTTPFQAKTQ

**Q.** For `COc1cccc2c1C(=O)CC(c1ccccc1)O2` (centres undefined), which Potency is on record?
**A.** The Potency was inconclusive [inhibitor, partial curve].

**Q.** For `Cc1nn(-c2ccccc2)c2sc(C(=O)OCC(=O)N3CCCCC3)cc12`, which Potency is on record?
**A.** Its Potency is inconclusive [inhibitor, partial curve].

**Q.** `C[C@H]1Cc2c(COc3ccccc3)nc3c(c2CO1)CN(C(=O)c1ccco1)CC3` was tested. Which activity change, negative = inhibition did it give?
**A.** The activity change, negative = inhibition was inactive: -7.23%.

**Q.** Which Potency does the source give for `O=C(N/N=C/c1c(O)ccc2ccccc12)c1cccc(C(F)(F)F)c1` here?
**A.** Its Potency is inconclusive [inhibitor, partial curve].

**Q.** With `Fc1ccc(OCc2nnc(SCCN3CCOCC3)o2)cc1` as the compound, how does the Potency read?
**A.** Its Potency is active: 22.4 µM.

**Q.** Which Potency does the source give for `CCCCC1OC23CCCCC2C(C#N)(C(=N)O3)C1(C#N)C#N` (centres undefined) here?
**A.** Its Potency is inconclusive [inhibitor, single point].

**Q.** With `CCCOc1ccc2c3c(c(=O)oc2c1)CCCC3` as the compound, how does the Potency read?
**A.** Its Potency is inconclusive [inhibitor, partial curve].

**Q.** Which activity change, negative = inhibition does the source give for `CCOC(=O)CN1C(=O)C(CC)Oc2ccccc21` (centres undefined) here?
**A.** Its activity change, negative = inhibition is inactive: -10.9%.

**Q.** Which activity change, negative = inhibition does the source give for `CCOC(=O)Nc1sc(NS(=O)(=O)c2ccc(C)cc2)nc1C` here?
**A.** The activity change, negative = inhibition was inactive: -5.85%.

**Q.** With `COCc1cc(C)c2c(N)c(C#N)sc2n1` as the compound, how does the Potency read?
**A.** The Potency was inconclusive [inhibitor, single point].

**Q.** For `Cc1ccc(OCCCC(=O)NCc2ccco2)cc1`, which Potency is on record?
**A.** Its Potency is active: 25.1 µM.

**Q.** Which activity change, negative = inhibition does the source give for `O=C(NCc1ccco1)c1ccc2c(c1)C(=O)N(Cc1ccccc1)C2=O` here?
**A.** Its activity change, negative = inhibition is inactive: -25.8%.

**Q.** `COc1ccc(/C=N/NC(=O)c2nc(-c3ccccc3)cc(-c3ccccc3)n2)cc1` was tested. Which Potency did it give?
**A.** Its Potency is inconclusive [inhibitor, single point].

**Q.** For `CCS(=O)(=O)Nc1ccc(-c2cc(-c3ccccc3)c3cc(C)ccc3n2)cc1`, which Potency is on record?
**A.** Its Potency is inconclusive [inhibitor, partial curve].

**Q.** `Cc1cc(C)cc(NCCC#N)c1` was tested. Which activity change, negative = inhibition did it give?
**A.** Its activity change, negative = inhibition is inactive: -7.28%.

**Q.** How did the Potency turn out when `c1ccc(-c2nc(CSc3n[nH]c(-c4cccs4)n3)cs2)cc1` was run?
**A.** Its Potency is active: 3.98 µM.

**Q.** How did the Potency turn out when `COc1cccc(NC(=O)CC2(CC(=O)O)CCCC2)c1` was run?
**A.** Its Potency is inconclusive [inhibitor, single point].

**Q.** `Cc1ccc(C)c(S(=O)(=O)N2CC(=O)N(CCc3ccccc3)C(=O)C2)c1` was tested. Which activity change, negative = inhibition did it give?
**A.** The activity change, negative = inhibition was inactive: -18.2%.

**Q.** For `O=C(c1cnn2c(C(F)(F)F)cc(-c3ccc4c(c3)OCO4)nc12)N1CCCC1`, which Potency is on record?
**A.** Its Potency is active: 4.47 µM.

**Q.** Which Potency does the source give for `Cn1c(C(=O)N2CCN(C(=O)c3ccco3)CC2)cc2c(=O)n3ccccc3nc21` here?
**A.** The Potency was inconclusive [inhibitor, partial curve].

**Q.** Which Potency does the source give for `CCOC(=O)C(=O)/C(=C\N(C)C)c1onc(-c2ccccc2Cl)c1C(=O)OC` here?
**A.** The Potency was active: 14.1 µM.

**Q.** How did the Potency turn out when `CC(C)n1c(=NC(=O)c2ccco2)c(C#N)cc2c(=O)n3ccccc3cc21` was run?
**A.** The Potency was inconclusive [inhibitor, partial curve].

**Q.** How did the activity change, negative = inhibition turn out when `O=C1NC(=O)C(c2ccccc2)(c2ccccc2)N1` was run?
**A.** Its activity change, negative = inhibition is inactive: -7.22% [middle of 6 runs].

**Q.** How did the activity change, negative = inhibition turn out when `O=C(NCC1CCCCC1)c1nnc(C(=O)NCC2CCCCC2)c2c1[nH]c1ccccc12` was run?
**A.** Its activity change, negative = inhibition is inactive: -8.66%.

**Q.** How did the Potency turn out when `COc1ccccc1NC(=O)CNC(=O)c1ccccc1C` was run?
**A.** The Potency was active: 20 µM.

**Q.** For `COc1cc(CN2CC(=O)N(c3ccc(C)cc3)C2=S)cc(OC)c1OC`, which activity change, negative = inhibition is on record?
**A.** The activity change, negative = inhibition was inactive: -6.31%.

**Q.** `COc1ccc(OC)c(-c2cc(C(=O)Nc3cc(C)on3)no2)c1` was tested. Which Potency did it give?
**A.** Its Potency is inconclusive [inhibitor, partial curve].

**Q.** `N#Cc1nc(-c2ccco2)oc1NCc1ccco1` was tested. Which Potency did it give?
**A.** The Potency was inconclusive [inhibitor, partial curve].

**Q.** Which activity change, negative = inhibition does the source give for `CCC(C)(C)n1nnnc1C(c1ccc(OC)c(OC)c1)N1CCN(c2ccc(OC)cc2)CC1` (centres undefined) here?
**A.** The activity change, negative = inhibition was inactive: -5.93%.

**Q.** With `CCOC(=O)c1c(-c2cccc([N+](=O)[O-])c2)csc1N` as the compound, how does the activity change, negative = inhibition read?
**A.** Its activity change, negative = inhibition is inactive: -13.5%.

**Q.** How did the Potency turn out when `O=C(NNc1nc2cc3c(cc2s1)OCO3)c1ccc(F)cc1` was run?
**A.** The Potency was active: 25.1 µM.

**Q.** How did the Potency turn out when `CCOc1ccc(OCC(=O)c2c(O)c3ccccc3oc2=O)cc1` was run?
**A.** Its Potency is active: 12.6 µM.

**Q.** With `CCOC(=O)Cn1c(-c2nonc2NC(=O)c2ccccc2F)nc2ccccc21` as the compound, how does the Potency read?
**A.** Its Potency is inconclusive [inhibitor, partial curve].

**Q.** `O=C(NC(NNc1ccc([N+](=O)[O-])cc1)(C(F)(F)F)C(F)(F)F)c1ccc(Cl)cc1` was tested. Which Potency did it give?
**A.** The Potency was active: 15.8 µM.

**Q.** Which Potency does the source give for `OC[C@@H]1[C@@H](c2ccccc2)C(c2cccc(Cl)c2)=NN1c1ccccc1` here?
**A.** The Potency was inconclusive [inhibitor, partial curve].

**Q.** Which activity change, negative = inhibition does the source give for `COc1cc(-c2csc(C)n2)ccc1O` here?
**A.** The activity change, negative = inhibition was inactive: 2.35%.

**Q.** For `COc1cccc(CC(NC(C)=O)C(=O)NC2CCN(c3nc(C)cc(C)c3C#N)CC2)c1OC` (centres undefined), which Potency is on record?
**A.** The Potency was inconclusive [inhibitor, single point].

**Q.** For `Cc1cc(C)cc(Oc2ccccc2/C=N\O)c1`, which Potency is on record?
**A.** The Potency was active: 22.4 µM.

**Q.** Which Potency does the source give for `COC(=O)c1c(NC(=O)CC2Nc3ccccc3NC2=O)sc(C)c1C` (centres undefined) here?
**A.** The Potency was inconclusive [inhibitor, single point].

**Q.** Which Potency does the source give for `COc1ccc(N2C3=C(CC4=C2CC(C)(C)CC4=O)C(=O)CC(C)(C)C3)cc1` here?
**A.** The Potency was inconclusive [inhibitor, partial curve].

**Q.** For `Cc1nn(Cc2ccccc2)c(Cl)c1C(=O)OCc1nnc(-c2ccccc2)o1`, which Potency is on record?
**A.** The Potency was active: 12.6 µM.

**Q.** How did the Potency turn out when `Cc1noc(/C=C/N(C)C)c1S(=O)(=O)N1CCCC(C(=O)NC(C)c2ccccc2)C1` (centres undefined) was run?
**A.** The Potency was active: 31.6 µM.

**Q.** For `Cc1ccccc1C(=O)c1c[nH]c(C(=O)NCC2CCCO2)c1` (centres undefined), which Potency is on record?
**A.** The Potency was active: 6.31 µM.

**Q.** Which activity change, negative = inhibition does the source give for `Cn1cccc1Cc1nnc(SCC(=O)NCc2ccccc2)n1-c1ccc(F)cc1` here?
**A.** The activity change, negative = inhibition was inactive: -11.6%.

**Q.** `CCC1C(=O)n2nc(-c3ccccc3)cc2N=C1C` (centres undefined) was tested. Which Potency did it give?
**A.** The Potency was inconclusive [inhibitor, partial curve].

**Q.** How did the activity change, negative = inhibition turn out when `Cc1cccc(NC(=O)/C(C#N)=C\c2cccnc2)c1` was run?
**A.** Its activity change, negative = inhibition is inactive: -13.4%.

**Q.** `Cn1c(=O)c2c(nc(N3CCN(c4ccccn4)CC3)n2Cc2ccccc2Cl)n(C)c1=O` was tested. Which activity change, negative = inhibition did it give?
**A.** The activity change, negative = inhibition was inactive: -12.3%.

**Q.** `COc1ccc2c(c1)S/C(=C\C(=O)c1ccncc1)N2C` was tested. Which Potency did it give?
**A.** Its Potency is active: 28.2 µM.

**Q.** With `Cc1cc(NC(=O)CSc2ccc(-c3ccccc3)nn2)no1` as the compound, how does the activity change, negative = inhibition read?
**A.** Its activity change, negative = inhibition is inactive: -8.35%.
